From ChEMBL document CHEMBL4888484, “Replenishing the malaria drug discovery pipeline: Screening and hit evaluation of the MMV Hit Generation Library 1 (HGL1) against asexual blood stage Plasmodium falciparum ,using a nano luciferase reporter read-out” (2022)
“And” between values parts separate entries of the source, which are not always exact repeats. Identical values can stand only once. Among all 150,000 compounds or so, about 540 (0.36%) showed an effect of 50% or more. Some of the results follow.

Tested on: Plasmodium falciparum
Assay: Primary screen in NF54 nanoGlo assay, in single point, at 2uM, 72h; a lower Z score goes with more inhibition
Format: functional, Erythrocyte
Settings: timepoint 72 hour

| Compound | % Inhibition | Z score | % Inhibition (2 µM) | Z score (2 µM) |
| --- | --- | --- | --- | --- |
| Cc1c(C2CCCCC2)noc1NC(=O)Cc1ccco1 | -6% | 1.15 |  |  |
| CC[C@H]1CN(C(=O)c2scnc2C)CCO1 | -5% | 0.48 |  |  |
| CCCNC(=O)CN1CC(C)C1c1ccccc1 (stereo not drawn) | -21% | 2.87 |  |  |
| CC(=O)[C@H]1CCCCN1C(=O)c1ccc(C(N)=O)cc1 | -4% | 0.54 |  |  |
| CC(NC(=O)N1CCCC1CO)c1ccc(NC(=O)NC2CC2)cc1 (stereo not drawn) | 4% | -0.35 |  |  |
| c1ccc2nc(-c3nc([C@H]4CCOC4)no3)cnc2c1 | -16% | 1.66 |  |  |
| C[C@@H]1CN(C(=O)Nc2nc(C3CCC3)cs2)C[C@@]1(C)CN | -5% | 0.97 |  |  |
| Cc1nc(-c2ccc(C(=O)N[C@@H](C)Cn3cccn3)cc2)n(C)n1 | 2% | -0.3 |  |  |
| CC(C)c1ccsc1C(=O)NCCc1ccc(Cl)s1 | -3% | 0.26 |  |  |
| O=C(c1cccc2cc[nH]c12)N1CCC(Cc2ncc[nH]2)CC1 | -1% | 0.2 |  |  |
| CC(C)Cc1nc(CN2CCc3[nH]nc(-c4ccc(Cl)cc4)c3C2)no1 | -16% | 2.09 |  |  |
| Cc1nc(CN2CC[C@H](NC(=O)c3n[nH]c4c3CCCC4)[C@@H](O)C2)cs1 | 6% | -1.04 |  |  |
| CN(C)CCc1nnc(NC(=O)CCc2ccnn2C)s1 | -9% | 1.3 |  |  |
| Cc1nnc([C@H](C)N2CCN(C3CC3)CC2)s1 | -3% | 0.35 |  |  |
| Cc1ccc(C(=O)NC2CCCCCC2)cc1-n1cnc2cccnc21 | -7% | 1.11 |  |  |
| Cc1nccn1C[C@H]1CCCN(CCOc2ccccc2)C1 | 0% | 0.03 |  |  |
| CC(C)=CCN1CC2(CCN(C(=O)Nc3ccccc3C)CC2)CC1=O | -12% | 2.38 |  |  |
| Cc1nc(N[C@@H](C)Cc2cccnc2)cc(C(C)C)n1 | 20% | -2.53 |  |  |
| COc1cccc2c(N3CCN(Cc4ccccc4)CC3)nc(C(Cl)(Cl)Cl)nc12 | -4% | 0.53 |  |  |
| CCn1nnnc1NC(=O)NCC[C@@H]1OCCc2ccccc21 | -2% | 0.32 |  |  |
| O=C(c1cn[nH]c1)N1CCCC2(CCOCC2)C1 | -8% | 1.01 |  |  |

| Compound | % Inhibition | Z score | % Inhibition (2 µM) | Z score (2 µM) |
| --- | --- | --- | --- | --- |
| O=C([C@H]1C[C@@H]1c1ccncc1)N1CCn2cnc(C(F)(F)F)c2C1 | 2% | -0.46 |  |  |
| CCc1cccc(NC(=O)Cc2c(C)nc(C)[nH]c2=O)c1 | -7% | 1.43 |  |  |
| COC1CN(c2ccc(NC(=O)Nc3cccc(C)c3)cc2)C1 | -4% | 0.54 |  |  |
| CN(Cc1ccccc1)[C@H]1CCOC2(CCN(C(=O)CC3CCCC3)CC2)C1 | -13% | 1.67 |  |  |
| CCOc1nc(-c2cccc(F)c2)n(-c2ccc(NC(=O)Nc3ccc(F)cc3F)cc2)n1 | -9% | 1.18 |  |  |
| CC(C)(CNC(=O)[C@@H]1CS(=O)(=O)CC(=O)N1)C1=CCCCC1 | -4% | 0.72 |  |  |
| O=C(CN1N=C(c2ccccc2)c2cc(Cl)ccc2S1(=O)=O)NCCc1ccccc1 | 11% | -1.01 |  |  |
| CCN(CCCCO)S(=O)(=O)c1cccc(C(=O)N2CCC2)c1 | -4% | 0.52 |  |  |
| CCCCN(CC(=O)N1c2ccccc2-n2cccc2[C@H]1c1ccc(Cl)cc1)C(=O)Nc1cccc2ccccc12 | -1% | 0.17 |  |  |
| CC(C)c1ccc(-c2cccc3c2O[C@@H](CN)C3)nn1 | -12% | 1.75 |  |  |
| COC(=O)C[C@H]1CCCCN1CC(=O)NC(=O)NC1CCCCC1 | -10% | 1.85 |  |  |
| CC(NC(=O)CN1CC(C)(C)C1c1cccs1)c1ccc(F)cc1 (stereo not drawn) | 3% | -0.41 |  |  |
| O=C(CC1CCC1)N1CCN(Cc2cccs2)C[C@H](O)C1 | -18% | 3.41 |  |  |
| CC(=O)NCC1=CCCN(CCC(F)(F)C(F)(F)F)C1 | -4% | 0.83 |  |  |
| CCS(=O)(=O)N(C)C1CCN(C(=O)[C@@H]2CCCc3ccccc32)CC1 | -3% | 0.47 |  |  |
| COC(=O)[C@H](CO)NS(=O)(=O)Cc1ccccc1 | -13% | 1.5 |  |  |
| Cc1n[nH]c(C)c1CC(=O)N1CCC2(CC1)Cc1cn(nn1)CCCNC(=O)[C@H](Cc1ccccc1)NC2=O | 12% | -1.56 |  |  |
| Cc1cc(C)c(NC(=O)C2(N(Cc3ccco3)C(=O)CN3C(=O)c4ccccc4C3=O)CCC3Cc4ccccc4CC3C2)c(C)c1 (stereo not drawn) | -45% | 5.25 |  |  |
| Cc1noc2nc(C3CC3)cc(C(=O)N[C@H]3CCOc4c(F)cccc43)c12 | 7% | -1.14 |  |  |
| CCc1nnc(CN2CCOC[C@@H]2CC2CCC2)n1C | -15% | 2.48 |  |  |
| COc1ccc(OC)c2c1cc(C(=O)Nc1nnc(CC(C)C)s1)n2C | -14% | 1.77 |  |  |

| Compound | % Inhibition | Z score | % Inhibition (2 µM) | Z score (2 µM) |
| --- | --- | --- | --- | --- |
| COc1cccc(CS(=O)(=O)Cc2nc(C)c(C)s2)c1 | -18% | 3.35 |  |  |
| Cc1cc(CNC2CCC3CC2CN3C(=O)OC(C)(C)C)ccn1 (stereo not drawn) | -1% | 0.21 |  |  |
| O=C1c2ccccc2C(=O)N1CCN1CCC[C@H]1c1ccsc1 | -6% | 0.99 |  |  |
| Cc1csc(CNC(=O)NCc2nnc3n2CCOCC3)c1 | -2% | 0.17 |  |  |
| CC1OCCC1NC(Cc1ccccc1)C(=O)N1CCCCC1 (stereo not drawn) | 5% | -0.79 |  |  |
| COc1ncccc1CNC(=O)c1cc(C)nc(C(F)(F)F)n1 | -15% | 2.06 |  |  |
| Cc1occc1C(=O)N[C@@H]1CN(Cc2ccccn2)C[C@H]1CO | -8% | 1.16 |  |  |
| O=c1ncc2c(cnn2[C@H]2CCS(=O)(=O)C2)n1Cc1ccc(C(F)(F)F)cc1 | 0% | 0.05 |  |  |
| COc1ccc([C@@H]2CNCCN2C)cc1OC | -4% | 0.5 |  |  |
| Cc1noc([C@@H]2CCCO[C@H]2C2CCN(CC3CCC3)CC2)n1 | 6% | -0.84 |  |  |
| COc1ccc(C2(C#N)CCC3(CC2)OCCO3)cc1OC |  |  | -3% and -11% | 0.59 and 1.51 |
| CCc1cnc(C)nc1N1CCC(Oc2ncccn2)CC1 | 3% | -0.46 |  |  |
| CC(=O)N1C[C@@H]2C[C@H](NC(=O)c3cc(C)ccc3C)CN2C(=O)[C@@H]1C | -23% | 2.06 |  |  |
| Cn1nccc1CN(CCO)Cc1nccs1 | -12% | 1.46 |  |  |
| c1coc(CN(Cc2nnnn2C2CC2)C2CC2)c1 | -8% | 0.74 |  |  |
| COc1cc2c(cc1OC)CN(C(=O)c1cnn[nH]1)CC2 | 6% | -0.82 |  |  |
| CCc1nc(C#N)cc(N2C3CCC2CN(C(=O)OC(C)(C)C)C3)n1 | -6% | 0.77 |  |  |
| N#Cc1cccnc1NCCc1ccccn1 | 1% | -0.15 |  |  |
| Cc1coc(C(=O)N2CC[C@H](NS(C)(=O)=O)C2)c1C | -8% | 1.3 |  |  |
| Cn1nnnc1CCNC(=O)N1CCC[C@H](c2ccc(F)c(F)c2)C1 | -8% | 1.56 |  |  |
| Cc1nn(C)c(C)c1C(=O)N1CCCC1 | -6% | 0.87 |  |  |

| Compound | % Inhibition | Z score | % Inhibition (2 µM) | Z score (2 µM) |
| --- | --- | --- | --- | --- |
| CCOC(=O)c1[nH]cc(C)c1C(F)(F)F | -4% | 0.41 |  |  |
| CCN1CCC(C(=O)N2CC(C)(C)[C@@](O)(C3CC3)C2)CC1 | -1% | 0.22 |  |  |
| CCOCCCNC(=O)CN1CCn2nc(-c3ccc(Cl)cc3)cc2C1=O | -11% | 1.46 |  |  |
| C[C@@H](c1ccc2c(c1)OCCO2)N(C)C(=O)CCc1nnc(-c2ccc3c(c2)OCO3)o1 | -16% | 1.45 |  |  |
| CCOC(=O)c1cnn(CCC#N)c1NS(=O)(=O)c1ccc2c(c1)OCCCO2 | 3% | -0.49 |  |  |
| O=C(CN1CCN(C(=O)Nc2ccc(Br)cc2)CC1=O)NCc1ccccc1F | -14% | 1.82 |  |  |
| N[C@H]1CN(C(=O)c2cccc3c2COCC3)CC12CCC2 | -2% | 0.38 |  |  |
| COc1cccc(NC(=O)c2coc(NC(=O)c3ccsc3)n2)c1 | 0% | 0.02 |  |  |
| COc1cc(C(=O)Nc2ccc3sc(NC(=O)c4cc(OC)c(OC)c(OC)c4)nc3n2)cc(OC)c1OC | 101% | -16.35 |  |  |
| CC(C)[C@@H]1NC(=O)c2ccccc2N(CC(=O)Nc2nccs2)C1=O | -2% | 0.27 |  |  |
| O=C(O)c1ccc(N2C[C@H](NC(=O)C3CCOCC3)[C@@H](C3CC3)C2)nc1 | -10% | 1.17 |  |  |
| CN1C(=O)N(CC(=O)C(C)(C)c2ccccc2)S(=O)(=O)c2ccccc21 | -5% | 0.98 |  |  |
| COCCN1C[C@@H](Cc2nc(C)c(C)c(C)c2C#N)CC1=O | 2% | -0.29 |  |  |
| CCS(=O)(=O)N[C@@H](CN1CCCC1)C(C)(C)C | -5% | 0.85 |  |  |
| O=C1CCC(CCC(=O)N[C@@H]2[C@H]3CCO[C@H]3[C@H]2Cc2ccccc2)=NN1 | 5% | -0.51 |  |  |
| O=C(Nc1ccsc1C(=O)N[C@H]1CCCC[C@@H]1O)c1ccncc1 | 7% | -1.09 |  |  |
| CC(C)Cc1ccc(CN2C[C@H](O)[C@@H](F)C2)s1 | -8% | 0.97 |  |  |
| CC(C)Cc1cc(CN2CCN(CC3CC3)[C@@H]3CS(=O)(=O)C[C@@H]32)n[nH]1 | 1% | -0.12 |  |  |
| COC(=O)CN1CCC(c2ccnc3ccccc23)CC1 | -2% | 0.19 |  |  |
| CC(C(=O)O)C(=O)NC1CCN(c2ccc(Cl)cc2Cl)C1 (stereo not drawn) | -15% | 1.8 |  |  |
| CC[C@H](C)NC(=O)c1sc2nc(C)c(C(=O)Nc3ccc(C)cc3C)c(-c3cccs3)c2c1N | 17% | -2.61 |  |  |
